Some of the results follow.

The subject of the assay is PF3D7_0420300 AP2 domain 1 (GST-tagged). The assay can be described thus: gcPBM binding intensity (ln(normalized median fluorescence intensity)); higher = stronger DNA binding. The essentials:
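GST-fused DNA-binding domains of P. falciparum, expressed in E. coli, were applied at about 25 μg on average for 1 h to an Agilent 4 × 180k array of primer-extended double-stranded 36-bp intergenic genomic probes and negative controls. Binding intensity is the highest Masliner-normalised natural-log median intensity across replicate spots of either probe orientation, measured with Alexa488 anti-GST antibody and a 488 nm scan.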
Consider “CATATATGTTATATTTAACACACATATAAGGTACAT [CACACA_site8105]”, for which the “gcPBM binding intensity (ln)” value is 9.39.
For “CAGCTCTTAAAAATTACACACATATACACATATATA [CACACA_site9073]”, the “gcPBM binding intensity (ln)” value turned out to be 9.55.
For “TTATTACACACATATGTGCACATATAAAAGTACACG [GTGCAC_site9581]”, the “gcPBM binding intensity (ln)” value was found to be 9.42.
As to “TTTCTAGTTACAAGAGTGCATAATATATAAAAATAA [GTGCAC_site9874]”, the “gcPBM binding intensity (ln)” value came out at 9.03.
For “TATATATATATATATACACACATTTTTAATGATAAA [CACACA_site2695]”, the “gcPBM binding intensity (ln)” value was 9.29.
The value for “TATAAATACAATTCACAAGAGATCATGTATCAAACC [CACACA_negctrl_site1219]” was 9.4; that for “ATATAATAAATATGTTGTACTATAAAAAATAGCCAT [XGTACX_site4710]” was 9.37.
Under “TTCCAAAATTGCATTTGTACCCAAAAAATGTATACG [XGTACX_site7680]” stands 9.07.
Under “GTAAGTTTGAATACACGTACAAATTTATTAAAGTCC [XGTACX_site6722]” stands 9.28; under “AGATATTAAAACGTTACACACATTTATATATCTTCT [CACACA_site908]”, 9.69; under “ATCAGTCGGCAGGACAGTACACAGTAGCCAGGAAAT [XGTACX_site2003]”, 9.32.
In the case of “GCTTTTTATTTTTACCGTACATTATATATGTATATA [XGTACX_site808]”, the “gcPBM binding intensity (ln)” value was determined as 9.69.
As for “ATATTATTAATTTATAGTACTCATTTTTTTTTTTTT [XGTACX_site3536]”, the “gcPBM binding intensity (ln)” value amounted to 9.22.
For the sequence “ATATATATATTTGTGTGTACATATTAATTTGTATGA [XGTACX_site4047]”, the “gcPBM binding intensity (ln)” value was determined as 9.64.
As for “AACGCGAACAATTTATAGATAACTTTTAATTATTAT [GTGCAC_negctrl_site179]”, the “gcPBM binding intensity (ln)” value stood at 9.2.
Under “TATATATATATAAACTGTACTATTTTATGTTAAAAG [XGTACX_site3630]” stands 9.14; under “ATTTAATACAAATACACACACAAATATATACATATA [CACACA_site3747]”, 9.95.
For the sequence “AATATATATATAGGATGTACACATAATTCAAATACA [XGTACX_site6368]”, the “gcPBM binding intensity (ln)” value was 9.52.
Take “ATACATTTTTGTAAAAGTACATATACATGCCCCCTT [XGTACX_site1367]”: the “gcPBM binding intensity (ln)” value was determined as 9.53.
The value for “ATGGTATATCCAAATAAACACACGTAAATACATAAA [CACACA_site1682]” was 9.45; that for “TTTAGCCAATTTTTAAAGTTTAAAAAAGAAAAAAGA [CACACA_negctrl_site118]” was 8.72; that for “TATTAAAAATACATATGTACTCATAGCATAAAACAT [XGTACX_site8686]” was 9.35.
Take “CAAATGTAGAAAATGTGTACATAAAAAAAAAAAAAA [XGTACX_site8276]”: the “gcPBM binding intensity (ln)” value was determined as 9.19.
The value for “AGTCAATTTTGTGTGTCAACATTTATATAAAGAATG [TGCATGCA_negctrl_site400]” was 9.39.

These data come from the supplement of paper PMC11417369.
